# Measured values taken from PubChem BioAssay AID1508642 (National Center for Advancing Translational Sciences (NCATS), 2021).
# Hit rate of the full screen: of about 43,000 compounds, about 200 (0.47%) were called active. About 12% were inconclusive and are not listed. The call rests on the fitted dose curve; in most records, active means well fitted cell-killing curve with a large enough effect; inconclusive means small, poorly fitted or top-dose-only effect, or effect the other way; inactive means flat fitted curve, though single readings scatter. The list shows a part of the results.
# Assay: Cell viability qHTS assay in S16 Pmp22-F2sN cells; further: nearly all actives have a fitted effect of over 65% in size
# Settings: S16 Pmp22-F2sN Schwann cells (luciferase reporters placed in the Pmp22 gene) viability, CellTiter-Glo, 24 h; series mostly up to 57.5 µM; activity change, negative = cytotoxicity: at the top concentration
# Summary of the method: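 Rat S16 Schwann reporter line, 24 h treatment with library compounds delivered at 23 nL per well. Cell viability by CellTiter-Glo luminescence.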
# On the % scale 0 is the no-effect control and ±100 the full control effect.
row,SMILES,"activity change, negative = cytotoxicity"
1,Cc1ccc(-n2cnc3cc(C(=O)NCCC4=CCCCC4)ccc32)cc1Cl,inactive: -27.4%
2,COc1ccc(CNC(=O)C(=O)NCC(c2cccs2)S(=O)(=O)c2cccs2)cc1 (stereo unspecified),inactive: 16.6%
3,O=C(CCc1nc(-c2cccs2)no1)Nc1ccc([N+](=O)[O-])cc1,inactive: 2.08%
4,Cc1ccc(OCC(=O)Nc2cccc3ccc(C)nc23)c(C)c1,inactive: -9.21%
5,Cc1cccc(NC(=O)COc2ccc3oc4c(c3c2)CCCC4)c1,inactive: -0.504%
6,CCOc1ccc2nc(N3CCCC(C(=O)NCCc4ccc(C)cc4)C3)sc2c1 (stereo unspecified),inactive: 2.7%
7,Cc1ccc(NC(=O)CSc2nc3ccccc3n2CC(=O)N(C)C2CCCCC2)cc1C,inactive: -3.01%
8,CC(C(=O)Nc1ccccc1)n1nnc2sc3c(c2c1=O)CCCC3 (stereo unspecified),inactive: 11%
9,Cc1ccccc1C(=O)Nc1ccccc1-c1nc(-c2ccccc2)no1,inactive: 1.8%
10,CCc1nc2nc(C)c(NS(=O)(=O)c3ccc(F)c(C)c3)c(=O)n2[nH]1,inactive: 3.97%
11,Cc1cc(C(=O)NCc2ccccc2)c2c(C)nn(-c3cccc(Cl)c3C)c2n1,inactive: 4.54%
12,Cc1cccc(Cn2c(=O)n(Cc3ccccc3)c(=O)c3sc4ccccc4c32)c1,inactive: 0.454%
13,CCCCn1c(CNC(=O)C23CC4CC(CC(C4)C2)C3)nnc1SCC(=O)Nc1ccc(F)cc1,inactive: -0.979%
14,Cc1cccc(NC(=O)Nc2nnc(N3CCCC3)s2)c1,inactive: 2.21%
15,CCOc1ccccc1NC(=O)CCc1c(C)nc2cc(-c3ccccc3)nn2c1C,inactive: 3.02%
16,CC(C)C(=O)Nc1cccc(C(=O)Nc2nnc(C(F)(F)F)s2)c1,inactive: 4.07%
17,COc1cccc(CNC(=O)c2ccc3c(c2)nc2n3CCC(C)C2)c1 (stereo unspecified),inactive: 14.3%
18,COc1ccc(-n2nc(-c3ccc(C)cc3)c3cnc4cc(F)c(F)cc4c32)cc1,inactive: 11.1%
19,Cc1ccc(NC(=O)Cn2nc(-c3ccccc3)nc(Cc3ccccc3)c2=O)cc1,inactive: -1.75%
20,CCCN(CCC)C(=O)c1nn(C)c2c1CSc1ccccc1-2,inactive: -3.48%
21,CCOCCCn1c(=N)c(C(=O)NCc2ccccc2)cc2c(=O)n3ccccc3nc21,inactive: -0.0596%
22,COc1cccc(NC(=O)Cn2c(=O)n(CCc3cccc(C)c3)c(=O)c3ccccc32)c1,inactive: 23.5%
23,Cc1cccc(NC(=O)c2c(NC(=O)c3ccco3)sc3c2CCC(C)C3)c1 (stereo unspecified),inactive: -1.2%
24,CC1=C(C(=O)Nc2cccnc2)C(c2ccccc2Cl)n2nc(-c3ccccc3)nc2N1 (stereo unspecified),inactive: 1.07%

row,SMILES,"activity change, negative = cytotoxicity"
1,Cc1cc(NC(=O)CSc2ncc(C(=O)Nc3ccc(C)c(C)c3)c(=O)n2C)no1,inactive: -0.182%
2,Cc1ccc(NC(=O)CCSc2nc(-c3ccc4c(c3)OCO4)cc(C(F)(F)F)n2)c(C)c1,inactive: 5.61%
3,Cc1cc(C)c2oc(-c3cccc(NC(=O)COc4ccccc4Cl)c3C)nc2c1,inactive: -1.58%
4,CS(=O)(=O)c1ncc(Cl)c(C(=O)Nc2c(C(=O)c3ccc(Cl)cc3)oc3ccccc23)n1,inactive: 0.69%
5,COc1ccc(CCNC(=O)c2ccc(Cn3c(SCC(=O)NCCC(C)C)nc4cc5c(cc4c3=O)OCO5)cc2)cc1OC,inactive: 4.96%
6,Cc1ccc(C2CC(=O)n3nc(-c4cccc(C)c4)nc3S2)cc1 (stereo unspecified),inactive: -1.87%
7,CN(C)c1ccc(CNC(=O)C2CCN(S(=O)(=O)c3ccc4[nH]c(=O)ccc4c3)CC2)cc1,inactive: -5.21%
8,CC(C)C(=O)Nc1nnc(SCc2cc(=O)n3ccccc3n2)s1,inactive: 0.249%
9,COc1cc(-c2ccno2)ccc1S(=O)(=O)N1CCN(c2ccccc2)CC1,inactive: -15.8%
10,Cc1ccc2nc(CN3CCN(S(=O)(=O)c4ccc(C)c(C)c4)CC3)oc2c1,inactive: 10.1%
11,CC(=O)c1c(C)n(-c2ccc(C)cc2)c2ccc(OC(=O)COc3ccccc3)cc12,inactive: -4.61%
12,CCOc1cccc(C(=O)N(Cc2ccc(F)cc2)Cc2ccco2)c1,inactive: 6.54%
13,Cc1ccc(N2C(=O)CCSC23C(=O)N(Cc2ccc(F)cc2)c2ccccc23)cc1 (stereo unspecified),inactive: -1.38%
14,Cc1ccc(N2C(=O)CS(=O)(=O)C23C(=O)N(Cc2ccc(Cl)cc2)c2ccccc23)cc1C (stereo unspecified),inactive: 9.48%
15,O=C1CC(c2ccc(F)cc2F)c2cc3c(cc2N1)OCO3 (stereo unspecified),inactive: 2.54%
16,COc1ccc(OC)c(NC(=O)Cn2c(=O)n(-c3ccc(Cl)cc3)c(=O)c3c(C)c(C)sc32)c1,inactive: -3.63%
17,CCOC(=O)c1c(NC(=O)COc2ccc(C(C)(C)C)cc2)sc2c1CCCC2,inactive: 5.9%
18,CCc1cccc(CC)c1NC(=O)Cn1nnc2sc3c(c2c1=O)CCCC3,inactive: -11.3%
19,Cc1ccc(NC(=O)c2c(C)nn(-c3ccccc3)c2-n2cccc2)c(Cl)c1,inactive: -28.7%
20,Cc1ccc2c(c1)N(C(=O)CCC(=O)NCc1cccs1)CC(C)O2 (stereo unspecified),inactive: -0.784%
21,COC(=O)c1ccccc1NC(=O)Cn1c(CCC(=O)O)ccc1-c1ccc(C)cc1,inactive: -10.4%
22,Cc1cccc(CC(=O)Nc2c(C(=O)Nc3cccc(F)c3)oc3ccccc23)c1,inactive: -6.88%
23,CCOC(=O)C1CCN(C(=O)Cn2ncc3c4ccccc4n(Cc4ccccc4)c3c2=O)CC1,inactive: -1.97%
24,CCc1ccc(NC(=O)CCCc2nnc3n(CCCOC)c(=O)c4sccc4n23)cc1,inactive: 10.2%

row,SMILES,"activity change, negative = cytotoxicity"
1,Cc1ccc(NC(=O)C(C)Sc2nc3c(c(=O)[nH]2)CCCC3)cc1Cl (stereo unspecified),inactive: -0.229%
2,CSc1cccc(NC(=O)CN2C(=O)CCc3cc(S(=O)(=O)N4CCCCC4)ccc32)c1,inactive: 0.646%
3,CCOc1ccc(CNC(=O)C2CCCN(c3nn4cc(-c5ccc(F)cc5)nc4s3)C2)cc1 (stereo unspecified),inactive: 13.7%
4,COc1ccc(-n2c(=O)c3c(c4cc(OC)ccc4n3C)n(CC(=O)N3CCCC3)c2=O)cc1,inactive: 12.7%
5,CCOc1ccc(/C=C/c2nc(C#N)c(NCCCN(C)C)o2)cc1,inactive: -23.8%
6,CCc1ccc2oc(-c3ccc(NC(=O)c4cccc(Cl)c4Cl)cc3)nc2c1,inactive: -13.9%
7,O=C(Cn1cnc2c(nc3n2CCCCC3)c1=O)Nc1cccc(C(F)(F)F)c1,inactive: -1.99%
8,COC(=O)c1ccccc1NC(=O)Cn1c(=O)n(CCCC(=O)NCc2ccccc2Cl)c(=O)c2ccccc21,inactive: 11.9%
9,O=C(COc1ccccc1Cl)N(Cc1cccc(F)c1)C1CCS(=O)(=O)C1 (stereo unspecified),inactive: 10.9%
10,CCOc1ccccc1NC(=O)CSc1ccc2nc(-c3ccccc3)cn2n1,inactive: -19.1%
11,Cc1cc(=O)n(Cc2c(F)cccc2Cl)c2c1c(C)nn2C,inactive: -0.267%
12,CCOC(=O)Cn1c(CN2CCN(c3ccc(OC)cc3)CC2)nc2c1c(=O)[nH]c(=O)n2C,inactive: 0.489%
13,COc1ccc(CCNC(=O)Cn2c(-c3ccc(F)cc3)cc(C(C)=O)c2C)cc1OC,inactive: -2.94%
14,CCOC(=O)C1CCN(C(=O)CSc2n[nH]c(-c3ccc(OC)cc3)n2)CC1,inactive: -4.31%
15,Cn1c(=O)n(C)c2cc(N3CCOCC3)c(NS(=O)(=O)c3ccc(Cl)cc3)cc21,inactive: -3.03%
16,Cc1ccc(-n2c(=O)c3c(cnn3C)n(CC(=O)Nc3cccc(C)c3)c2=O)cc1,inactive: 20.7%
17,COc1ccccc1N1CCN(C(=O)c2cc3c(-c4ccccc4F)nn(C)c3s2)CC1,inactive: -21.4%
18,COc1cc2ccccc2cc1C(=O)N1CCN(c2nc3c(F)cc(F)cc3s2)CC1,inactive: -0.0817%
19,CCCC(=O)Nc1cc(-c2nnc3c4ccccc4c(C)nn23)ccc1C,inactive: -2.6%
20,Cc1ccc(C)c(OC(=O)CSc2nnc(-c3cccs3)o2)c1,inactive: 3.12%
21,COc1ccc2c(c1)CC(C(=O)NCCc1ccc(S(N)(=O)=O)cc1)CO2 (stereo unspecified),inactive: 4.72%
22,Cc1ccc(Cn2cc(S(=O)(=O)c3ccc(Cl)cc3)c(=O)c3cc4c(cc32)OCO4)cc1,inactive: 0.49%
23,CC(=O)Nc1ccc(NC(=O)C(NS(=O)(=O)c2ccc(Br)s2)c2ccccc2)cc1 (stereo unspecified),inactive: 2.37%
24,COc1cc(NC(=O)Cn2nnnc2-c2ccccc2F)cc(OC)c1OC,inactive: -0.758%

row,SMILES,"activity change, negative = cytotoxicity"
1,CC(=O)N1CCc2cc(S(=O)(=O)NC(Cc3ccccc3)C(=O)NCc3ccccc3Cl)ccc21 (stereo unspecified),inactive: -15.9%
2,CCCc1ccc(OC(C)c2nc(-c3ccc(-n4cccc4)cc3)no2)cc1 (stereo unspecified),inactive: -9.25%
3,CCOc1ccc2nc(N(Cc3cccnc3)C(C)=O)sc2c1,inactive: 2.48%
4,O=C1CC(=O)Nc2cc(S(=O)(=O)Nc3ccc(F)cc3Cl)ccc2N1,inactive: -5.69%
5,Cc1ccc(OCCSc2nc3ccc(NC(=O)c4ccco4)cc3s2)cc1,inactive: 13.2%
6,COc1ccc(-c2cc3ccc(O)c(CN4CCCCC4C)c3oc2=O)cc1OC (stereo unspecified),inactive: -8.37%
7,Cc1cccc2c(=O)cc(CSc3ccccc3NC(=O)C(C)(C)C)[nH]c12,inactive: 16.9%
8,CCOC(=O)c1cc(S(=O)(=O)NCc2ccc(OC)cc2)[nH]n1,inactive: -0.0199%
9,CCCC(=O)Nc1ccccc1C(=O)OCc1cc(=O)n2nc(C(C)C)sc2n1,inactive: 8.88%
10,Cc1cc(C)cc(NC(=O)N2CCN(C(=O)c3nsc4ccccc34)CC2)c1,inactive: 2.9%
11,COc1ccc(OC)c(S(=O)(=O)N2CCN(Cc3nc4ccc(C)cc4o3)CC2)c1,inactive: 0.586%
12,CCN(C(=O)Cn1c(=O)n(Cc2ccc3c(c2)OCO3)c(=O)c2ccc(C(=O)NC3CCCCC3)cc21)c1cccc(C)c1,inactive: 0.824%
13,COc1ccc(NC(=O)c2cc3c(=O)n(Cc4cccnc4)ccc3nc2C)c(OC)c1,inactive: -1.59%
14,O=C(Nc1ccc(N2CCOCC2)c(C(=O)O)c1)c1ccc(Br)cc1,inactive: 2.96%
15,Cc1ccc(CNC(=O)Cn2ccn(-c3ccc(F)cc3)c(=O)c2=O)cc1,inactive: -0.0951%
16,Cc1cccc(CN2C(=O)c3ccccc3S(=O)(=O)c3ccc(C(=O)NC4CCCCC4)cc32)c1,inactive: -8.28%
17,Cc1ccc(NC(=O)c2c(C)oc3ncn(CC(C)C)c(=O)c23)nc1,inactive: -28.2%
18,Cc1ccc2nc3c(cc(C(=O)NCc4ccco4)c(=N)n3C(C)C)c(=O)n2c1,inactive: 10.7%
19,CCn1c(=O)c2cc(C(=O)NCCc3ccc(Cl)cc3)sc2c2ccccc21,inactive: 21.1%
20,CCn1c(=O)c2sccc2n2c(CCC(=O)Nc3ccc(C(C)C)cc3)nnc12,inactive: 15.9%
21,Cc1ccc(N(C)C(=O)C2CCN(S(=O)(=O)c3cn(C)cn3)CC2)cc1,inactive: 5.52%
22,COc1cc(C2c3c(oc4ccccc4c3=O)C(=O)N2Cc2ccc(C)cc2)ccc1O (stereo unspecified),inactive: 8.85%
23,CC1CCN(CCCNC(=O)CN2C(=O)CSc3ccc(S(=O)(=O)N4CCOCC4)cc32)CC1,inactive: 16.9%
24,COc1ccc(OCC(=O)NC(Cc2c[nH]c3ccccc23)C(=O)O)cc1 (stereo unspecified),inactive: -2.89%
